In the supplement of paper PMC4604168 (melanoma cell lines):
Some of the results follow. Most values come without repeats; read them as rough.
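Further: cells treated in 1,536-well plates, then fixed and DAPI-stained, with nuclei counted from automated high-throughput microscope images.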

The compounds below were run on COLO829 (assay: cell count relative to DMSO control; melanoma cells; higher = more viable cells). Details: library dose: standard library concentration; 72 h.
Compound `CCCCCCCCc1ccc(CCC(N)(CO)CO)cc1` [fingolimod] + Cc1cc([N+](=O)[O-])ccc1NS(=O)(=O)c1cc(Cl)ccc1Cl [FH535] (first compound 10 µM, partner dose 5 µM) has a cell count of 58.2%.
Compound `CN(NC(=O)CC(=O)NN(C)C(=S)c1ccccc1)C(=S)c1ccccc1` + COc1cc2c(Oc3ccc4[nH]c(C)cc4c3F)ncnc2cc1OCCCN1CCCC1 [cediranib] (first compound 0.03 µM, partner dose 2 µM) has a cell count of 62.2%.
Compound `CCc1ccc(CCOc2ccc(CC3SC(=O)NC3=O)cc2)nc1` (stereo not given) [pioglitazone] + O=C1NC(=O)/C(=C/c2ccc(-c3ccc(F)cc3O)o2)S1 [AS252424] (first compound 10 µM, partner dose 5 µM) has a cell count of 102%.
Work on `Cc1ccc(NC(=O)c2cccc(N(C)C)c2)cc1NC(=O)c1ccc(O)cc1` + CCCCCCCCCCCC1=C(O)C(=O)C=C(O)C1=O [Embelin] (first compound 10 µM, partner dose 6 µM) yielded a cell count of 80.6%.
With `Cc1ccc(NC(=O)c2cccc(N(C)C)c2)cc1NC(=O)c1ccc(O)cc1` + COc1ccc2c(c1)CCC1C2CCC2(C)C(NCCCCCCN3C(=O)C=CC3=O)CCC12 [U73122] (first compound 10 µM, partner dose 2 µM) the cell count was 129%.
For `CC(C)(C)c1cnc(CSc2cnc(NC(=O)C3CCNCC3)s2)o1` + CN(NC(=O)CC(=O)NN(C)C(=S)c1ccccc1)C(=S)c1ccccc1 [STA4783] (first compound 0.05 µM, partner dose 0.03 µM), the cell count was 60.4%.
`CN(NC(=O)CC(=O)NN(C)C(=S)c1ccccc1)C(=S)c1ccccc1` + COc1cc(N2CCC(N3CCN(C)CC3)CC2)ccc1Nc1ncc(Cl)c(Nc2ccccc2S(=O)(=O)C(C)C)n1 [NVP-TAE684] (first compound 0.03 µM, partner dose 0.4 µM) was tested, and the cell count was 37.1%.
`CN(NC(=O)CC(=O)NN(C)C(=S)c1ccccc1)C(=S)c1ccccc1` + CCCCCCCCCCCC1=C(O)C(=O)C=C(O)C1=O [Embelin] (first compound 0.03 µM, partner dose 6 µM) was tested, and the cell count was 37.4%.
With `CC(C)(C)c1cnc(CSc2cnc(NC(=O)C3CCNCC3)s2)o1` + O=C(Nc1ccccc1)c1cc([N+](=O)[O-])ccc1Cl [GW9662] (first compound 0.05 µM, partner dose 10 µM) the cell count was 53.6%.
For `CCCCCCCCc1ccc(CCC(N)(CO)CO)cc1` [fingolimod] + CCCS(=O)(=O)Nc1ccc(F)c(C(=O)c2c[nH]c3ncc(Cl)cc23)c1F [PLX4720] (first compound 10 µM, partner dose 0.4 µM), the cell count was 57.9%.
In the case of `CCCCCCCCc1ccc(CCC(N)(CO)CO)cc1` [fingolimod] + O=C(O)C(=O)Nc1sc2c(c1C(=O)O)CCNC2 [TCS401] (first compound 10 µM, partner dose 8.33333 µM), the cell count is reported as 49.2%.
Compound `CCc1ccc(CCOc2ccc(CC3SC(=O)NC3=O)cc2)nc1` (stereo not given) [pioglitazone] + COC(=O)c1sccc1S(=O)(=O)Nc1ccc(Nc2ccccc2)cc1OC [GSK0660] (first compound 10 µM, partner dose 5 µM) has a cell count of 137%.
With `COc1cc2c(Oc3ccc4[nH]c(C)cc4c3F)ncnc2cc1OCCCN1CCCC1` [cediranib] + COc1cc(N2CCC(N3CCN(C)CC3)CC2)ccc1Nc1ncc(Cl)c(Nc2ccccc2S(=O)(=O)C(C)C)n1 [NVP-TAE684] (first compound 2 µM, partner dose 0.4 µM) the cell count was 77.1%.
`CC(C)(C)c1cnc(CSc2cnc(NC(=O)C3CCNCC3)s2)o1` + CCCCCCCCCCCC1=C(O)C(=O)C=C(O)C1=O [Embelin] (first compound 0.05 µM, partner dose 6 µM) was tested, and the cell count was 82.8%.
`CCCCCCCCc1ccc(CCC(N)(CO)CO)cc1` [fingolimod] + CN1CCN(c2ccc3nc(-c4c(N)c5c(F)cccc5[nH]c4=O)[nH]c3c2)CC1 [Dovitinib] (first compound 10 µM, partner dose 0.5 µM) gave a cell count of 28.5%.
In the case of `CCCCCCCCc1ccc(CCC(N)(CO)CO)cc1` [fingolimod] + COc1ccc2c(c1)CCC1C2CCC2(C)C(NCCCCCCN3C(=O)C=CC3=O)CCC12 [U73122] (first compound 10 µM, partner dose 2 µM), the cell count is reported as 59.5%.
`Cc1ccc(NC(=O)c2cccc(N(C)C)c2)cc1NC(=O)c1ccc(O)cc1` + Cc1cc(N2CCOCC2)cc2[nH]c(-c3c(NC[C@@H](O)c4cccc(Cl)c4)cc[nH]c3=O)nc12 [BMS536924] (first compound 10 µM, partner dose 1 µM) gave a cell count of 88.7%.
Work on `NC(=O)c1ccc(N(C(N)=O)c2c(F)cccc2F)nc1-c1ccc(F)cc1F` + CCCCCCCCCCCC1=C(O)C(=O)C=C(O)C1=O [Embelin] (first compound 2 µM, partner dose 6 µM) yielded a cell count of 67.1%.
With `NC(=O)c1ccc(N(C(N)=O)c2c(F)cccc2F)nc1-c1ccc(F)cc1F` + Cn1nnc2c(C(N)=O)ncn2c1=O [temozolomide] (first compound 2 µM, partner dose 10 µM) the cell count was 81.2%.
`CN(NC(=O)CC(=O)NN(C)C(=S)c1ccccc1)C(=S)c1ccccc1` + COc1ccc2c(c1)CCC1C2CCC2(C)C(NCCCCCCN3C(=O)C=CC3=O)CCC12 [U73122] (first compound 0.03 µM, partner dose 2 µM) was tested, and the cell count was 94.8%.
`NC(=O)c1ccc(N(C(N)=O)c2c(F)cccc2F)nc1-c1ccc(F)cc1F` + CN(NC(=O)CC(=O)NN(C)C(=S)c1ccccc1)C(=S)c1ccccc1 [STA4783] (first compound 2 µM, partner dose 0.03 µM) gave a cell count of 39.6%.
`Cc1ccc(NC(=O)c2cccc(N(C)C)c2)cc1NC(=O)c1ccc(O)cc1` + O=C(Nc1cccc(Cl)c1)Nc1ncc(CCNc2ncnc3ccsc23)s1 [SNS314] (first compound 10 µM, partner dose 0.004 µM) gave a cell count of 92%.
With `CCCCCCCCc1ccc(CCC(N)(CO)CO)cc1` [fingolimod] + COC(=O)c1sccc1S(=O)(=O)Nc1ccc(Nc2ccccc2)cc1OC [GSK0660] (first compound 10 µM, partner dose 5 µM) the cell count was 50.6%.
With `CCCCCCCCc1ccc(CCC(N)(CO)CO)cc1` [fingolimod] + CCCCCCCCCCCC1=C(O)C(=O)C=C(O)C1=O [Embelin] (first compound 10 µM, partner dose 6 µM) the cell count was 65.2%.
For `NC(=O)c1ccc(N(C(N)=O)c2c(F)cccc2F)nc1-c1ccc(F)cc1F` + CN1CCN(c2ccc3nc(-c4c(N)c5c(F)cccc5[nH]c4=O)[nH]c3c2)CC1 [Dovitinib] (first compound 2 µM, partner dose 0.5 µM), the cell count was 61.1%.
`CC(C)(C)c1cnc(CSc2cnc(NC(=O)C3CCNCC3)s2)o1` + NCC(=O)Nc1ccc(-n2nc(C(F)(F)F)cc2-c2ccc3c(ccc4ccccc43)c2)cc1 [OSU03012] (first compound 0.05 µM, partner dose 5 µM) gave a cell count of 64.6%.
`CCCCCCCCc1ccc(CCC(N)(CO)CO)cc1` [fingolimod] + NC1(c2ccc(-c3nc4ccn5c(=O)[nH]nc5c4cc3-c3ccccc3)cc2)CCC1 [MK2206] (first compound 10 µM, partner dose 2 µM) was tested, and the cell count was 69.6%.
For `CC(C)(C)c1cnc(CSc2cnc(NC(=O)C3CCNCC3)s2)o1` + Oc1cc(-c2nc(-c3ccccc3)[nH]c2-c2ccncc2)ccc1Cl [L779450] (first compound 0.05 µM, partner dose 1 µM), the cell count was 82.3%.
With `CCc1ccc(CCOc2ccc(CC3SC(=O)NC3=O)cc2)nc1` (stereo not given) [pioglitazone] + Oc1nc(-c2ccc(C(F)(F)F)cc2)nc2c1CSCC2 [XAV939] (first compound 10 µM, partner dose 10 µM) the cell count was 112%.
Compound `COc1cc2c(Oc3ccc4[nH]c(C)cc4c3F)ncnc2cc1OCCCN1CCCC1` [cediranib] + Cn1cc(/C=C2\C(=O)Nc3cccnc32)c2ccccc21 [GW441756] (first compound 2 µM, partner dose 2 µM) has a cell count of 107%.
`CCCCCCCCc1ccc(CCC(N)(CO)CO)cc1` [fingolimod] + Cn1cncc1[C@@](N)(c1ccc(Cl)cc1)c1ccc2c(c1)c(-c1cccc(Cl)c1)cc(=O)n2C [tipifarnib] (first compound 10 µM, partner dose 0.05 µM) was tested, and the cell count was 43.7%.
`CCc1ccc(CCOc2ccc(CC3SC(=O)NC3=O)cc2)nc1` (stereo not given) [pioglitazone] + Cc1cc([N+](=O)[O-])ccc1NS(=O)(=O)c1cc(Cl)ccc1Cl [FH535] (first compound 10 µM, partner dose 5 µM) showed a cell count of 70.1%.
`CCCCCCCCc1ccc(CCC(N)(CO)CO)cc1` [fingolimod] + COCC[n+]1c2c(n(Cc3cnccn3)c1C)C(=O)c1ccccc1C2=O [YM155] (first compound 10 µM, partner dose 0.002 µM) was tested, and the cell count was 36.2%.
`NC(=O)c1ccc(N(C(N)=O)c2c(F)cccc2F)nc1-c1ccc(F)cc1F` + O=C1NC(=O)/C(=C/c2ccc(-c3ccc(F)cc3O)o2)S1 [AS252424] (first compound 2 µM, partner dose 5 µM) was tested, and the cell count was 73.3%.
`NC(=O)c1ccc(N(C(N)=O)c2c(F)cccc2F)nc1-c1ccc(F)cc1F` + Cc1nc(Nc2ncc(C(=O)Nc3c(C)cccc3Cl)s2)cc(N2CCN(CCO)CC2)n1 [dasatanib] (first compound 2 µM, partner dose 0.02 µM) was tested, and the cell count was 35%.
